Reference: the supplement of paper PMC3334620
The full ranking holds about 33,000 sequences; the median of “E-score (-0.5 to 0.5)” is about -0.036, and the highest 2% start at about 0.37. The list shows a part of the results.

target: T1, Yer064c (UniProt P40041); assay: PBM E-score (8-mer binding enrichment) (E-score (-0.5 to 0.5)); higher = stronger / more preferred TF binding; most listed sequences are background and not binding sites; conditions: protein concentration: 200 nM; construct: GST-full length
T1 sequence: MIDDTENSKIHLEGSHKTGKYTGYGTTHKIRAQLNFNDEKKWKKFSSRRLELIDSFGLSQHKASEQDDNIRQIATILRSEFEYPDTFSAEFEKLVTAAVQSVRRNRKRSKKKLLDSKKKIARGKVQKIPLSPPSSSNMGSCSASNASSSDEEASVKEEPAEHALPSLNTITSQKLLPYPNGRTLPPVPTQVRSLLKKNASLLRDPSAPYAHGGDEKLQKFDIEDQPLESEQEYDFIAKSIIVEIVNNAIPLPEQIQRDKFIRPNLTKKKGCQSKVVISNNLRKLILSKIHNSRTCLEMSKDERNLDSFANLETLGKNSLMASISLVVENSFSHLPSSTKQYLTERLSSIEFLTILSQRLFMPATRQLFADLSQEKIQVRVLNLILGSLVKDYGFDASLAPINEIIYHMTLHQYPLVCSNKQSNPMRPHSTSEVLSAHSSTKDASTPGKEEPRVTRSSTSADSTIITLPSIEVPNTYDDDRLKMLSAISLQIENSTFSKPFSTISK
Procedure, shortened: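 Each ungapped eight-base word and its reverse complement, pooled, received an E-score from the Universal PBM Analysis Suite. Underlying scans, normalised with masliner, recorded fluorescent anti-GST bound to GST-tagged yeast transcription factors. These were applied at about 100-200 nM to universal all-10-mer Agilent arrays double-stranded by primer extension.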

Sequence | PBM E-score
CCGGTTGA | -0.0809
ATTTCTCG | 0.105
ATCGTGGC | 0.0187
GGGGATTA | -0.00464
TGCAAAAA | 0.0376
AGGAGCGC | -0.205
GGCTGATA | -0.114
GTACGGAC | 0.103
GAATTACC | -0.0729
GGCTGCCC | -0.21
ACGAGCGG | -0.222
GCGCCAGC | -0.297
CAACCAGC | -0.0309
ATCCCGGA | 0.00118
ACAGGGGG | -0.12
AAATGGAT | 0.102
CGAGTATC | -0.0827
AAAAAGTA | 0.174
CCCTTTAC | -0.137
AACAGTAA | 0.034
AATCTGCG | -0.101
ACTAGAGT | 0.188
ACAGCTCT | -0.224
CTCTAGAG | -0.0437
ACTGTTAA | 0.173

Sequence | PBM E-score
AATGGATA | 0.0647
CAACGATG | 0.128
GATGACAC | 0.0978
ACGCCCGC | -0.411
AACTTTCG | -0.134
GTTCAGCA | 0.0631
CATCGTCA | 0.0555
GTGGGCCA | -0.0911
AGGAAAAG | -0.0349
CCCTCTGA | 0.0818
GTCTGTCA | -0.107
ATCGAGGC | -0.301
AAAGGAGT | 0.118
ACCTGGTG | -0.0925
GATGTACA | -0.118
GACTGAAC | 0.275
CGTCAGGA | -0.0376
AATCGCGG | 0.109
GGTCCAAC | -0.0443
CACCTGCC | -0.23
ACAGAATC | 0.15
AGATGTAT | -0.00575
TATATTAA | 0.172
ACTGCGAC | 0.228
ACCGCTAG | -0.171

Sequence | PBM E-score
AAACGAGG | -0.0986
CTAGGTAA | 0.156
TAACTCGA | 0.148
AACTTGTC | -0.185
CAGTAGCG | 0.0182
ACACGTGA | 0.0831
ACGCATTG | -0.0677
CGCCAGAG | -0.0733
CTGCAAAA | 0.0755
AACGCGAT | -0.145
ATTAGAAT | 0.186
ATTACAGC | 0.0956
CAGAACCA | 0.075
CCGAGATC | -0.105
AAAAGATG | 0.0899
GATCGTAA | -0.068
CAAGGTTC | -0.146
CCCAACTC | -0.00233
AAAACCTT | -0.11
GACAAGAA | -0.0678
CATGGGCC | 0.0402
GACGTCGC | -0.202
TACCAGTA | -0.0512
ATATCGGC | -0.169
CTATCCTC | -0.14

Sequence | PBM E-score
GGAAGTAC | -0.137
GTGCTGAA | -0.0395
ACCGACGA | 0.0503
GTCCCGAC | 0.0408
CATTAGGA | 0.0671
GAAGACTC | 0.446
TATTAAAA | 0.0723
GGGTGGAA | -0.269
GGTCGTAC | -0.205
ACCGCGGT | -0.121
AGGTAGAT | -0.103
ATATATCC | -0.0359
CCCTTCCG | -0.203
CAAGCCCC | -0.158
GAGCGGCA | -0.171
AACCCAAA | -0.0254
ACTAGCTG | -0.00067
ATATAAAT | 0.0663
CAGTGACA | -0.162
AGTTAGCG | -0.0192
CCCGCGAC | 0.1
CACTTAGA | 0.0684
CGTTACAA | -0.016
GTAACAGA | 0.00394
GGAACGCA | -0.371

Sequence | PBM E-score
GGACTCAA | 0.409
ATAACGAG | -0.0867
ATTTATCA | 0.0846
AGGCCCGA | -0.332
TGATTGAA | 0.333
CTCGTAAA | 0.0978
CATGTTTC | 0.0994
ACGAAAGA | 0.0469
ATGACGCG | -0.0232
CTCACTTA | 0.295
AACTGTCC | -0.271
CACGTGGA | 0.0649
CGCCCTAG | -0.0199
TCGCTTAA | 0.0623
TTGAACAA | -0.106
AAAGTGTA | -0.0572
AGACCGTA | -0.11
CAAGGATC | -0.0273
CCCGGCAG | -0.181
GACCTCGA | 0.0249
ACCTAACG | -0.232
ATCCGTGA | 0.0129
ATCTAAGG | -0.0303
ATGCGTGG | -0.0922
ACTAGATC | 0.0321

Sequence | PBM E-score
GAGCCAGC | 0.046
GTGTTCAA | 0.0916
CGAATAAC | -0.0556
ACCGAGGT | -0.102
CCCCCGAC | -0.188
CCTCACCG | -0.033
CGAAGTTA | 0.0023
CTCTCTTA | 0.0697
AAAGCGGC | -0.0342
AGTGCTCA | 0.00363
ACTTTAAA | 0.164
AGACGTGG | -0.13
CGATTATA | 0.167
CAAGCTCA | -0.0628
AGCGGTGG | -0.295
AAGTCCTC | 0.188
AATCCTGT | 0.0773
GAATTCGA | 0.0614
CTTATGAC | 0.262
GCTGAGAA | -0.047
AGCATGTA | -0.0955
CGTTATTC | 0.101
CCATGCAC | -0.105
GGGGACCA | -0.112
AGTGTTCC | 0.0512

Sequence | PBM E-score
GGTATACC | -0.0355
CACCGAGC | 0.0709
ACTTTTCC | 0.185
TGTTGCAA | 0.0182
ATAGAGAG | -0.171
TATGAGCA | 0.0232
AGTCACGA | 0.466
CTCTCACA | -0.0505
CCGGAGGC | -0.154
CGTTACTA | 0.0517
AAGCGCTC | -0.294
CTGTGAGA | 0.166
GTGTGCCA | -0.226
AAGTCAAT | 0.305
ATTATCCG | -0.0102
ATTCCTAC | 0.127
AGCGCTAT | -0.141
AAGACCGA | -0.15
GCAGTTCA | -0.0587
CGTTCTGA | -0.00219
CCGGGTTA | -0.141
CAGGTTTC | 0.109
AGAACTCG | -0.0243
ACATACCA | -0.0959
CTCATTCC | 0.17

Sequence | PBM E-score
GGTCGGGA | -0.115
ACGTAACT | -0.119
CCGGATCG | -0.173
AACGTTAT | -0.201
ATTGCGGG | -0.102
GATGACGC | -0.197
AGTATTTG | 0.0413
AGAGCAAC | -0.198
GAAAGACA | -0.0825
CGCATGGC | -0.0395
CGGCAATC | 0.0483
TAGTAACA | 0.147
AAATTGTA | 0.165
GCAGCTTA | -0.189
ACGAGTTA | 0.123
CCCCAAGA | -0.112
AATGCCTC | -0.232
CAGCCGTC | -0.0182
ATTGTATG | 0.0759
CGCTATTC | -0.0435
ATACCGCC | -0.133
ATCTGGCC | -0.262
GTCTTGTA | 0.0119
TAATTGCA | -0.0278
GTCTAGAC | -0.0147

Sequence | PBM E-score
CCTCCCAC | -0.165
TAATGGTA | -0.0906
GTAAGTAC | 0.0516
CTTATGCA | 0.0241
AGATTACC | 0.239
ACCAAATC | 0.0245
AGGTTCTC | -0.184
CTTCGGCA | 0.0471
GCCTGCTA | -0.258
CCACCCAC | -0.183
AGTGAGGC | -0.165
AGCACGAA | 0.11
GACATATA | -0.0355
TCAAACGA | 0.229
CACGGACA | -0.24
TACTGCGA | 0.0149
CATTTTAC | 0.121
ATTCATTC | 0.122
AGGCCCCT | -0.378
